The values below come from US10299477B2 (priority 2015, dated 2019).

The subject of the test is Colletotrichum orbiculare. Conditions: for Test H (control value class): in vivo; for Test H (control value class, anthracnose on cucumber): 250 ppm, sprayed 2.5 ml/pot before inoculation, evaluated 6-10 days after inoculation.

Molecules are shown by their SMILES.

For `CCn1c(-c2c(F)cccc2F)c(-c2cccc(Cl)c2F)ccc1=O` [Compound 472], the “Test H (control value class)” value is given as “H (key: H shows more than 50% of control values; L shows 50% or less of control values)”.
Still for that read-out and setting: next, `CCn1c(-c2c(F)cccc2F)c(-c2cccc(Cl)c2F)cc(Cl)c1=O` [Compound 473]: “L (key: H shows more than 50% of control values; L shows 50% or less of control values)”.
On the same count and under the same terms, then `Cn1c(-c2c(F)cccc2F)c(-c2cccc(Cl)c2F)cc(Cl)c1=O` [Compound 475], with “H (key: H shows more than 50% of control values; L shows 50% or less of control values)”; and `CCn1c(-c2c(F)cc(OC)cc2F)c(-c2cc(F)ccc2Cl)cc(Br)c1=O` [Compound 476, 3-bromo-5-(2-chloro-5-fluorophenyl)-6-(2,6-difluoro-4-methoxyphenyl)-1-ethylpyridine-2(1H)-one], with “H (key: H shows more than 50% of control values; L shows 50% or less of control values)”.
The same measure, in the same setting: then `CCN1C(=O)CCC(c2cc(F)ccc2F)=C1c1c(F)cccc1F` [Compound 477], with “L (key: H shows more than 50% of control values; L shows 50% or less of control values)”; and `CCn1c(-c2c(F)cccc2F)c(-c2cc(F)ccc2F)ccc1=O` [Compound 478], with “H (key: H shows more than 50% of control values; L shows 50% or less of control values)”; and `CCn1c(-c2c(F)cc(OC)cc2F)c(-c2cc(F)ccc2Cl)cc(C)c1=O` [Compound 479], with “H (key: H shows more than 50% of control values; L shows 50% or less of control values)”.
On to `CCn1c(-c2c(F)cccc2F)c(-c2cc(F)ccc2F)cc(Cl)c1=O` [Compound 481], for which the “Test H (control value class)” value is reported as “H (key: H shows more than 50% of control values; L shows 50% or less of control values)”.
Consider `CCn1c(-c2c(F)cccc2F)c(-c2cc(F)ccc2F)cc(Br)c1=O` [Compound 482], for which the “Test H (control value class)” value is “L (key: H shows more than 50% of control values; L shows 50% or less of control values)”.
In the case of `Cn1c(-c2c(F)cccc2F)c(-c2cc(F)ccc2F)ccc1=O` [Compound 483], the “Test H (control value class)” value was “H (key: H shows more than 50% of control values; L shows 50% or less of control values)”.
The same measure, in the same setting: next, `Cn1c(-c2c(F)cccc2F)c(-c2cc(F)ccc2F)cc(Cl)c1=O` [Compound 484]: “H (key: H shows more than 50% of control values; L shows 50% or less of control values)”; `CCn1c(-c2c(F)cc(F)cc2F)c(-c2cccc(F)c2Cl)ccc1=O` [Compound 486]: “H (key: H shows more than 50% of control values; L shows 50% or less of control values)”.
For `CCn1c(-c2c(F)cc(F)cc2F)c(-c2cccc(F)c2Cl)cc(Br)c1=O` [Compound 487], the “Test H (control value class)” value is given as “H (key: H shows more than 50% of control values; L shows 50% or less of control values)”.
On to `CCn1c(-c2c(F)cc(F)cc2F)c(-c2cccc(F)c2Cl)cc(Cl)c1=O` [Compound 488], for which the “Test H (control value class)” value is listed as “H (key: H shows more than 50% of control values; L shows 50% or less of control values)”.
In the case of `CCn1c(-c2c(F)cc(OC)cc2F)c(-c2cccc(F)c2Cl)ccc1=O` [Compound 489], the “Test H (control value class)” value is listed as “H (key: H shows more than 50% of control values; L shows 50% or less of control values)”.
With `Cn1c(-c2c(F)cc(F)cc2F)c(-c2cccc(F)c2Cl)ccc1=O` [Compound 491], the “Test H (control value class)” value is on record as “H (key: H shows more than 50% of control values; L shows 50% or less of control values)”.
Same read-out and setting: then `COc1cc(F)c(-c2c(-c3cccc(F)c3Cl)ccc(=O)n2C)c(F)c1` [Compound 492], with “H (key: H shows more than 50% of control values; L shows 50% or less of control values)”; and `CCn1c(-c2c(F)cccc2F)c(-c2cccc(Cl)c2F)cc(C)c1=O` [Compound 493], with “H (key: H shows more than 50% of control values; L shows 50% or less of control values)”; and `O=c1ccc(-c2cccc(Cl)c2F)c(-c2c(F)cccc2F)n1CC(F)F` [Compound 494], with “L (key: H shows more than 50% of control values; L shows 50% or less of control values)”.
The same measure, in the same setting: next, `O=c1c(Cl)cc(-c2cccc(Cl)c2F)c(-c2c(F)cccc2F)n1CC(F)F` [Compound 495]: “L (key: H shows more than 50% of control values; L shows 50% or less of control values)”.
On the same count and under the same terms, next, `COc1ccc(Cl)c(-c2ccc(=O)n(C3CC3)c2-c2c(F)cccc2F)c1` [Compound 496]: “H (key: H shows more than 50% of control values; L shows 50% or less of control values)”.
Regarding `CCn1c(-c2c(F)cccc2F)c(-c2cc(F)ccc2F)cc(C)c1=O` [Compound 497], the “Test H (control value class)” value is given as “H (key: H shows more than 50% of control values; L shows 50% or less of control values)”.
Still for that read-out and setting: next, `COc1ccc(Cl)c(-c2cc(Cl)c(=O)n(C3CC3)c2-c2c(F)cccc2F)c1` [Compound 498]: “H (key: H shows more than 50% of control values; L shows 50% or less of control values)”; `Cc1cc(-c2cc(F)ccc2F)c(-c2c(F)cccc2F)n(C)c1=O` [Compound 499]: “H (key: H shows more than 50% of control values; L shows 50% or less of control values)”; `Cn1c(-c2c(F)cc(F)cc2F)c(-c2cccc(F)c2Cl)cc(Cl)c1=O` [Compound 500]: “H (key: H shows more than 50% of control values; L shows 50% or less of control values)”.
Still for that read-out and setting: next, `COc1cc(F)c(-c2c(-c3cccc(F)c3Cl)cc(Cl)c(=O)n2C)c(F)c1` [Compound 504]: “H (key: H shows more than 50% of control values; L shows 50% or less of control values)”; `Cc1cc(-c2cccc(F)c2Cl)c(-c2c(F)cc(F)cc2F)n(C)c1=O` [Compound 505]: “H (key: H shows more than 50% of control values; L shows 50% or less of control values)”; `CCn1c(-c2c(F)cccc2F)c(-c2cccc(F)c2Cl)ccc1=O` [Compound 506]: “H (key: H shows more than 50% of control values; L shows 50% or less of control values)”.
Take `CCn1c(-c2c(F)cccc2F)c(-c2cccc(F)c2Cl)cc(Cl)c1=O` [Compound 507]: the “Test H (control value class)” value is reported as “H (key: H shows more than 50% of control values; L shows 50% or less of control values)”.
As to `Cn1c(-c2c(F)cccc2F)c(-c2cccc(F)c2Cl)ccc1=O` [Compound 508], the “Test H (control value class)” value was “H (key: H shows more than 50% of control values; L shows 50% or less of control values)”.
Same read-out and setting: next, `Cn1c(-c2c(F)cccc2F)c(-c2cccc(F)c2Cl)cc(Cl)c1=O` [Compound 509]: “H (key: H shows more than 50% of control values; L shows 50% or less of control values)”; `O=c1ccc(-c2cccc(F)c2Cl)c(-c2c(F)cccc2F)n1CC(F)F` [Compound 510]: “H (key: H shows more than 50% of control values; L shows 50% or less of control values)”.
Same read-out and setting: next, `CCn1c(-c2c(F)cccc2F)c(-c2cc(F)ccc2Cl)cc(F)c1=O` [Compound 512]: “H (key: H shows more than 50% of control values; L shows 50% or less of control values)”; `Cn1c(-c2c(F)cccc2F)c(-c2cc(F)ccc2Cl)cc(F)c1=O` [Compound 513]: “H (key: H shows more than 50% of control values; L shows 50% or less of control values)”.
Still for that read-out and setting: next, `CCN1C(=O)CCC(c2ccccc2F)=C1c1c(F)cc(F)cc1F` [Compound 514]: “H (key: H shows more than 50% of control values; L shows 50% or less of control values)”.
Consider `CCn1c(-c2c(F)cc(F)cc2F)c(-c2cccc(F)c2F)ccc1=O` [Compound 558], for which the “Test H (control value class)” value is given as “H (key: H shows more than 50% of control values; L shows 50% or less of control values)”.
The same measure, in the same setting: then `Cn1c(-c2c(F)cc(F)cc2F)c(-c2cccc(F)c2F)cc(Cl)c1=O` [Compound 559], with “H (key: H shows more than 50% of control values; L shows 50% or less of control values)”.
Same read-out and setting: then `Cn1c(-c2c(F)cc(F)cc2F)c(-c2cccc(F)c2F)cc(Br)c1=O` [Compound 560], with “H (key: H shows more than 50% of control values; L shows 50% or less of control values)”.
Regarding `COc1cc(F)c(-c2c(-c3cccc(F)c3F)ccc(=O)n2C)c(F)c1` [Compound 561], the “Test H (control value class, anthracnose on cucumber)” value was “H (H shows more than 50% of control values)”.
For `COc1cc(F)c(-c2c(-c3cccc(F)c3F)cc(Cl)c(=O)n2C)c(F)c1` [Compound 562], the “Test H (control value class, anthracnose on cucumber)” value is reported as “H (H shows more than 50% of control values)”.
The same measure, in the same setting: next, `COc1cc(F)c(-c2c(-c3cccc(F)c3F)cc(C)c(=O)n2C)c(F)c1` [Compound 565]: “H (H shows more than 50% of control values)”.
Regarding `CCn1c(-c2c(F)cc(F)cc2F)c(-c2cccc(F)c2F)cc(Cl)c1=O` [Compound 566], the “Test H (control value class, anthracnose on cucumber)” value is reported as “H (H shows more than 50% of control values)”.
Still for that read-out and setting: next, `CCn1c(-c2c(F)cc(F)cc2F)c(-c2cccc(F)c2F)cc(Br)c1=O` [Compound 567]: “H (H shows more than 50% of control values)”.
As to `CCn1c(-c2c(F)cc(F)cc2F)c(-c2ccccc2F)cc(F)c1=O` [Compound 568], the “Test H (control value class, anthracnose on cucumber)” value is “H (H shows more than 50% of control values)”.
For the compound `CCn1c(-c2c(F)cc(OC)cc2F)c(-c2ccccc2F)cc(C)c1=O` [Compound 569], the “Test H (control value class, anthracnose on cucumber)” value is given as “H (H shows more than 50% of control values)”.
On the same count and under the same terms, next, `COc1cc(F)c(-c2c(-c3ccccc3F)cc(Cl)c(=O)n2C)c(F)c1` [Compound 570]: “H (H shows more than 50% of control values)”; `Cc1cc(-c2ccccc2F)c(-c2c(F)cc(F)cc2F)n(C)c1=O` [Compound 571]: “H (H shows more than 50% of control values)”; `CCN1C(=O)CCC(c2ccc(F)cc2Cl)=C1c1c(F)cc(F)cc1F` [Compound 573]: “H (H shows more than 50% of control values)”.
On the same count and under the same terms, then `CN1C(=O)CCC(c2ccc(F)cc2Cl)=C1c1c(F)cc(F)cc1F` [Compound 574], with “H (H shows more than 50% of control values)”.
